In the antibiotic and cytotoxicity screens of Wong et al. (2023):
The other results are listed elsewhere or left out.

What follows are compounds tested on HSkMC (human skeletal muscle cells) (assay: cytotoxicity call (relative viability < 0.9)). Conditions: 10 µM.

Row | SMILES | cytotoxicity call
1 | COc1ccc(NC(=O)Nc2ccc3c(c2)C(=O)N([C@H](C)CO)C[C@H](C)[C@H](CN(C)CC2CCCCC2)OCCCC[C@H](C)O3)cc1 | inactive
2 | C[C@@H]1CN([C@@H](C)CO)C(=O)Cc2cc(NC(=O)Cn3cnnn3)ccc2O[C@H]1CN(C)S(=O)(=O)c1ccccc1 | inactive
3 | C[C@@H]1CCCCO[C@@H](CN(C)CC2CC2)[C@H](C)CN([C@H](C)CO)C(=O)c2cc(NC(=O)CCC(F)(F)F)ccc2O1 | inactive
4 | O=C1N[C@H](Cc2c[nH]c3ccccc23)COC(=O)[C@H](Cc2ccc(F)cc2)CC=CC[C@@H]1CC(=O)N(CCO)Cc1ccccc1 | inactive
5 | Cc1cc(O)cc(C)c1Cl | inactive
6 | COc1ccc(C#Cc2ccc3c(c2)O[C@@H](CN(C)C(=O)c2ccccn2)[C@H](C)CN([C@@H](C)CO)S3(=O)=O)cc1 | inactive
7 | C[C@H](CO)N1C[C@H](C)[C@@H](CN(C)S(=O)(=O)c2cn(C)cn2)Oc2cc(Br)ccc2S1(=O)=O | inactive
8 | C[C@H]1CCCCO[C@H](CN(C)C)[C@@H](C)CN([C@@H](C)CO)C(=O)c2cc(NC(=O)Nc3ccc(C(F)(F)F)cc3)ccc2O1 | inactive
9 | C[C@@H]1CCCCO[C@H](CN(C)C(=O)Nc2ccc(C(F)(F)F)cc2)[C@@H](C)CN([C@H](C)CO)C(=O)c2cc(NS(=O)(=O)c3ccccc3)ccc2O1 | inactive
10 | Cc1ccc(S(=O)(=O)N(C)C[C@H]2Oc3ccc(NS(=O)(=O)c4cccs4)cc3CC(=O)N([C@H](C)CO)C[C@H]2C)cc1 | inactive
11 | C[C@@H]1CN([C@@H](C)CO)C(=O)c2cc(C#CCN(C)C)cnc2O[C@H]1CN(C)C(=O)c1ccc2c(c1)OCO2 | inactive
12 | CC(=O)OC1CC(OC(C)=O)C2(C)C(CC(=O)C3(C)C2CCC2(C)C(c4ccoc4)OC(=O)C4OC423)C1(C)C (configuration not stated) | inactive
13 | Cc1noc(C)c1NC(=O)Nc1ccc2c(c1)C(=O)N([C@H](C)CO)C[C@H](C)[C@@H](CN(C)C(=O)Nc1c(C)noc1C)OCCCC[C@@H](C)O2 | inactive
14 | COc1cc(C(=O)NCCCN2CCCN(CCCNC(=O)c3cc(OC)c(OC)c(OC)c3)CC2)cc(OC)c1OC | inactive
15 | COc1ccc(CN(C)C[C@@H]2OCCCC[C@@H](C)Oc3ccc(NS(=O)(=O)c4ccc(Cl)cc4)cc3C(=O)N([C@H](C)CO)C[C@H]2C)cc1 | inactive
16 | C[C@H](CO)N1C[C@H](C)[C@H](CN(C)CC2CC2)Oc2ccc(NS(=O)(=O)c3ccccc3)cc2CC1=O | inactive
17 | Cc1cn(CCC#N)c2ccccc12 | inactive
18 | O=C(C1=C[C@@H](C2CC2)C[C@@H](OCc2ccc(CO)cc2)O1)N1CCN(Cc2ccc3c(c2)OCO3)CC1 | inactive
19 | CN1CCN(C(=O)C[C@H]2CC[C@@H]3[C@H](COC[C@H](O)CN3C(=O)C3CC3)O2)CC1 | inactive
20 | Cc1noc(C)c1S(=O)(=O)N(C)C[C@H]1OCCCC[C@H](C)Oc2ccc(NS(C)(=O)=O)cc2C(=O)N([C@@H](C)CO)C[C@@H]1C | inactive
21 | CC(C)(C)OC(=O)C[C@@H]1CC=CC[C@H](CC(=O)N[C@@H](CO)Cc2ccccc2)C(=O)N2CCC[C@@H]2COC1=O | inactive
22 | C[C@H](CO)N1C[C@H](C)[C@@H](CN(C)S(C)(=O)=O)OCCCC[C@H](C)Oc2ccc(NC(=O)c3ccncc3)cc2C1=O | inactive
23 | COc1ccc(NC(=O)N(C)C[C@@H]2OCCCC[C@@H](C)Oc3ccc(NC(=O)CCC(F)(F)F)cc3C(=O)N([C@@H](C)CO)C[C@H]2C)cc1 | inactive
24 | C[C@@H]1CN([C@H](C)CO)C(=O)c2cccc(NS(=O)(=O)c3cccs3)c2O[C@@H]1CN(C)CC1CC1 | inactive
25 | C[C@@H]1CCCCO[C@@H](CN(C)S(=O)(=O)c2ccc(Cl)cc2)[C@@H](C)CN([C@@H](C)CO)C(=O)c2cc(NC(=O)Nc3ccc4c(c3)OCO4)ccc2O1 | inactive
26 | CC(C)NC(=O)Nc1ccc2c(c1)CC(=O)N([C@@H](C)CO)C[C@@H](C)[C@H](CN(C)S(=O)(=O)c1ccc(Cl)cc1)O2 | inactive
27 | C[C@H]1CN([C@@H](C)CO)C(=O)c2cc(NC(=O)CCN3CCOCC3)ccc2O[C@H]1CN(C)Cc1ccc(C(=O)O)cc1 | inactive
28 | C[C@@H]1CCCCO[C@H](CN(C)C(=O)Nc2ccc(F)cc2)[C@@H](C)CN([C@@H](C)CO)C(=O)c2cc(NC(=O)Nc3ccc(C(F)(F)F)cc3)ccc2O1 | inactive
29 | COCCNC(=O)C[C@@H]1C[C@H]2c3cc(NC(=O)COC)ccc3O[C@H]2[C@@H](CO)O1 | inactive
30 | C[C@@H]1CN([C@H](C)CO)C(=O)c2cc(C#C[C@@H](C)O)cnc2O[C@@H]1CN(C)C(=O)CN1CCOCC1 | inactive

What follows are compounds tested on S. aureus RN4220 (assay: growth inhibition call (relative growth <= 0.2)). Conditions: 50 µM.

Row | SMILES | growth inhibition call
31 | COCC(=O)N1C[C@@H](C)[C@H](OC)CN(C)C(=O)c2ccc(NC(=O)Nc3ccccc3)cc2OC[C@H]1C | inactive
32 | C[C@H](CO)N1C[C@H](C)[C@@H](CN(C)Cc2ccc(Cl)c(Cl)c2)Oc2c(NC(=O)Nc3ccc(F)cc3)cccc2C1=O | inactive
33 | C[C@H]1CCCCO[C@H](CN(C)C(=O)Nc2ccc(C(F)(F)F)cc2)[C@@H](C)CN([C@@H](C)CO)C(=O)c2cc(NC(=O)c3ccccc3)ccc2O1 | inactive
34 | O=C(C[C@H]1C=C[C@@H](NC(=O)c2cccnc2)[C@@H](CO)O1)NCCN1CCCCC1 | inactive
35 | O=C(C[C@H]1CC[C@H]2[C@@H](COC[C@H](O)CN2S(=O)(=O)c2cccc(Cl)c2)O1)NCCCN1CCOCC1 | inactive
36 | C[C@@H]1CN([C@H](C)CO)C(=O)c2cc(NC(=O)C3CC3)ccc2O[C@@H]1CN(C)C(=O)Nc1ccc2c(c1)OCO2 | inactive
37 | OCc1ccc(O[C@@H]2O[C@H](CO)[C@@H](O)[C@H](O)[C@H]2O)cc1 | inactive
38 | C[C@@H]1CCCCO[C@@H](CN(C)CC2CC2)[C@@H](C)CN([C@H](C)CO)C(=O)c2cc(NC(=O)Nc3cccc4ccccc34)ccc2O1 | inactive
39 | O=C(Oc1cc(O)cc2c1C[C@@H](OC(=O)c1cc(O)c(O)c(O)c1)[C@@H](c1cc(O)c(O)c(O)c1)O2)c1cc(O)c(O)c(O)c1 | inactive
40 | CO[C@H]1O[C@H](CO)[C@@H](OC(=O)Nc2cccc(F)c2)[C@@H]2OC(=O)[C@H](Cc3cccc(Br)c3)C/C=C/C[C@@H](Cc3cccc(Br)c3)C(=O)O[C@@H]12 | inactive
41 | COc1ccc(NC(=O)Nc2ccc3c(c2)C(=O)N([C@H](C)CO)C[C@H](C)[C@H](CN(C)CC2CCCCC2)OCCCC[C@H](C)O3)cc1 | inactive
42 | C[C@@H]1CN([C@@H](C)CO)C(=O)Cc2cc(NC(=O)Cn3cnnn3)ccc2O[C@H]1CN(C)S(=O)(=O)c1ccccc1 | inactive
43 | C[C@@H]1CCCCO[C@@H](CN(C)CC2CC2)[C@H](C)CN([C@H](C)CO)C(=O)c2cc(NC(=O)CCC(F)(F)F)ccc2O1 | inactive
44 | O=C1N[C@H](Cc2c[nH]c3ccccc23)COC(=O)[C@H](Cc2ccc(F)cc2)CC=CC[C@@H]1CC(=O)N(CCO)Cc1ccccc1 | inactive
45 | Cc1cc(O)cc(C)c1Cl | inactive
46 | COc1ccc(C#Cc2ccc3c(c2)O[C@@H](CN(C)C(=O)c2ccccn2)[C@H](C)CN([C@@H](C)CO)S3(=O)=O)cc1 | inactive

Row | SMILES | growth inhibition call
47 | C[C@H](CO)N1C[C@H](C)[C@@H](CN(C)S(=O)(=O)c2cn(C)cn2)Oc2cc(Br)ccc2S1(=O)=O | inactive
48 | C[C@H]1CCCCO[C@H](CN(C)C)[C@@H](C)CN([C@@H](C)CO)C(=O)c2cc(NC(=O)Nc3ccc(C(F)(F)F)cc3)ccc2O1 | inactive
49 | C[C@@H]1CCCCO[C@H](CN(C)C(=O)Nc2ccc(C(F)(F)F)cc2)[C@@H](C)CN([C@H](C)CO)C(=O)c2cc(NS(=O)(=O)c3ccccc3)ccc2O1 | inactive
50 | Cc1ccc(S(=O)(=O)N(C)C[C@H]2Oc3ccc(NS(=O)(=O)c4cccs4)cc3CC(=O)N([C@H](C)CO)C[C@H]2C)cc1 | inactive
51 | C[C@@H]1CN([C@@H](C)CO)C(=O)c2cc(C#CCN(C)C)cnc2O[C@H]1CN(C)C(=O)c1ccc2c(c1)OCO2 | inactive
52 | CC(=O)OC1CC(OC(C)=O)C2(C)C(CC(=O)C3(C)C2CCC2(C)C(c4ccoc4)OC(=O)C4OC423)C1(C)C (configuration not stated) | inactive
53 | Cc1noc(C)c1NC(=O)Nc1ccc2c(c1)C(=O)N([C@H](C)CO)C[C@H](C)[C@@H](CN(C)C(=O)Nc1c(C)noc1C)OCCCC[C@@H](C)O2 | inactive
54 | COc1cc(C(=O)NCCCN2CCCN(CCCNC(=O)c3cc(OC)c(OC)c(OC)c3)CC2)cc(OC)c1OC | inactive
55 | COc1ccc(CN(C)C[C@@H]2OCCCC[C@@H](C)Oc3ccc(NS(=O)(=O)c4ccc(Cl)cc4)cc3C(=O)N([C@H](C)CO)C[C@H]2C)cc1 | inactive
56 | C[C@H](CO)N1C[C@H](C)[C@H](CN(C)CC2CC2)Oc2ccc(NS(=O)(=O)c3ccccc3)cc2CC1=O | inactive
57 | Cc1cn(CCC#N)c2ccccc12 | inactive
58 | O=C(C1=C[C@@H](C2CC2)C[C@@H](OCc2ccc(CO)cc2)O1)N1CCN(Cc2ccc3c(c2)OCO3)CC1 | inactive
59 | CN1CCN(C(=O)C[C@H]2CC[C@@H]3[C@H](COC[C@H](O)CN3C(=O)C3CC3)O2)CC1 | inactive
60 | Cc1noc(C)c1S(=O)(=O)N(C)C[C@H]1OCCCC[C@H](C)Oc2ccc(NS(C)(=O)=O)cc2C(=O)N([C@@H](C)CO)C[C@@H]1C | inactive
61 | CC(C)(C)OC(=O)C[C@@H]1CC=CC[C@H](CC(=O)N[C@@H](CO)Cc2ccccc2)C(=O)N2CCC[C@@H]2COC1=O | inactive
62 | C[C@H](CO)N1C[C@H](C)[C@@H](CN(C)S(C)(=O)=O)OCCCC[C@H](C)Oc2ccc(NC(=O)c3ccncc3)cc2C1=O | inactive
